# Laboratory results from PubChem BioAssay AID889 (National Center for Advancing Translational Sciences (NCATS), 2007).
# Hit rate of the full screen: of about 75,000 compounds, about 15 (0.02%) were called active. Inconclusive means that the source gave no clear call. Such entries were picked first, then a sample of the others. The call rests on the fitted dose curve; in most records, active means well fitted inhibition curve with a large enough effect in the main read-out, with a control signal flat (not every such curve was filed as active); inconclusive means small, poorly fitted or top-dose-only effect, or a change in a side signal; inactive means flat fitted curve, though single readings scatter. Potencies beside an inconclusive call are fits to weak or partial responses and may not hold up. A note “side channel” means that the fit belongs to a control or component signal, not to the main read-out.
# Biological target: Caspase-7 (Homo sapiens) (UniProt P55210)
# Assay: qHTS Assay for Allosteric/Competitive Inhibitors of Caspase-7; on activity change, negative = inhibition: % of control where 0% means no effect
# Conditions: recombinant caspase-7, Ac-DEVD-AFC fluorescence rate; activity change, negative = inhibition: at 57.5 µM (top of the series) unless noted
# Potency means the concentration at half of the fitted maximal effect; tags describe the fitted curve by direction and shape or compound fluorescence and quenching.
# Chain of UniProt P55210 (P55210 whole entry, looked up): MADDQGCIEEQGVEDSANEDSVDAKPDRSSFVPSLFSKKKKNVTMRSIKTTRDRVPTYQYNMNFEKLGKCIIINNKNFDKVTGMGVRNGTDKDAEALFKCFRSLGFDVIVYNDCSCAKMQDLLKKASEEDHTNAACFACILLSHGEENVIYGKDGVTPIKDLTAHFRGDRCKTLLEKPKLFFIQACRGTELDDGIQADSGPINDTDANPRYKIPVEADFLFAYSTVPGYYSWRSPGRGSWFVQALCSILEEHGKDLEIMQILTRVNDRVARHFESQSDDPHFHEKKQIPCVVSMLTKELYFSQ
Structure (SMILES),Potency,"activity change, negative = inhibition"
N#CC(C(=O)NC1CC1)c1nc2ccccc2nc1N1CCCC1 (configuration not stated),"inconclusive: 12.6 µM [fluorescent, partial curve]",
COc1cc(Cn2c(N)c(C#N)c3nc4ccccc4nc32)cc(OC)c1,"inconclusive: 10 µM [fluorescent, side channel, partial curve]",
COCCn1c(=N)c(C(=O)NCc2ccco2)cc2c(=O)n3ccccc3nc21,"inconclusive: 10 µM [fluorescent, side channel, partial curve]",
COc1cc(C2NC(=O)NC(c3ccccc3)=C2C(C)=O)ccc1OCC(=O)O (configuration not stated),"inconclusive: 12.6 µM [fluorescent, partial curve]",
CN(C)c1ncc2ncc(=O)n(C3CC3)c2n1,"inconclusive: 25.1 µM [fluorescent, partial curve]",
CN1CCN(c2cc(-c3ccoc3)ncn2)CC1,,inactive: -10.9%
CCNc1ncc2nc(-c3cccs3)c(=O)n(C)c2n1,"inconclusive: 0.501 µM [fluorescent, side channel, full curve]",
CCOC(=O)C1CCN(C(=O)Nc2ccc3nc(-c4ccco4)c(-c4ccco4)nc3c2)CC1,"inconclusive: 25.1 µM [fluorescent, side channel, partial curve]",
O=C(Nc1c(C(=O)N2CCOCC2)cnn1-c1ccccc1Cl)c1ccco1,"inconclusive: 6.31 µM [fluorescent, side channel, partial curve]",
O=C(/C=C/c1ccc2c(c1)OCO2)c1cccs1,"inconclusive: 31.6 µM [fluorescent, partial curve]",
OCCN1CCN(c2nc(-c3ccccc3)c3cc(Cl)ccc3n2)CC1,"inconclusive: 15.8 µM [fluorescent, partial curve]",
CCN(CC)c1ccc(-c2nn3c(-c4n[nH]c5c4CCC5)nnc3s2)cc1,"inconclusive: 25.1 µM [fluorescent, partial curve]",
Cc1cccc(S(=O)(=O)Nc2cccc(-c3cn4ccsc4n3)c2)c1,,inactive: -19.9%
C[C@H](Oc1ccc(Oc2cnc3ccc(Cl)cc3n2)cc1)C(=O)O,inactive,
COc1ccc(Oc2ncc3nc(-c4ccc(OC)cc4)c(=O)n(C4CC4)c3n2)cc1,"inconclusive: 15.8 µM [fluorescent, side channel, partial curve]",
Clc1ccccc1-c1nc(-c2ccncc2)no1,,inactive: 0.159% [at 11.5 µM]
Cc1cccc(OCC(=O)Nc2cccc(O)c2)c1,,inactive: -3.89%
COCCn1c(=O)c(-c2ccccc2)nc2cnc(N3CCOCC3)nc21,"inconclusive: 10 µM [fluorescent, side channel, partial curve]",
CCc1nc(CNC(=O)c2cc(OC)c(OC)c(OC)c2)no1,,inactive: -0.609%
O=C(NC1CCCC1)c1ccc2nc(-c3ccco3)c(-c3ccco3)nc2c1,"inconclusive: 15.8 µM [fluorescent, side channel, partial curve]",
COC(=O)C1=NOC2(C=C(Br)C(OC)=C(Br)C2=O)C1 (configuration not stated),,inactive: -2.51% [at 11.5 µM]
CCN1CCCC1Cn1c(-c2ccccc2)nc2c(NC3CCCCC3)nc(C)nc21 (configuration not stated),,inactive: -0.666%
Cc1ccc(-c2cc(C(F)F)n3ncc(C(=O)N4CCN(c5ccccn5)CC4)c3n2)cc1,"inconclusive: 31.6 µM [inhibitor, single point]",

Structure (SMILES),Potency,"activity change, negative = inhibition"
COc1ccc2[nH]c(=O)c(C(c3nnnn3C3CCCCC3)N3CCN(C)CC3)cc2c1 (configuration not stated),"inconclusive: 20 µM [inhibitor, single point]",
Cc1ccc2nc(Nc3ccc4[nH]c(=O)[nH]c4c3)c(-n3nc(C)cc3C)nc2c1,"inconclusive: 31.6 µM [inhibitor, single point]",
C(=N\n1cnnc1)/c1cn(-c2cccs2)nc1-c1ccccc1,,inactive: -1.93%
Cc1ccc(C2C3=C(CC(C)(C)CC3=O)N(CCN3CCOCC3)C3=C2C(=O)CC(C)(C)C3)cc1,"inconclusive: 12.6 µM [fluorescent, side channel, partial curve]",
Cc1cccc(OCC(=O)Nc2ccccc2N2CCN(C(=O)C(C)C)CC2)c1C,,inactive: -0.956%
Cc1noc(C)c1-c1nccc(-n2ccnc2)n1,,inactive: 1.31%
CCc1cc2c(CN3CCN(CCO)CC3)cc(=O)oc2cc1O,"inconclusive: 10 µM [fluorescent, side channel, partial curve]",
COc1cc(C(=O)OC2CC[C@]3(C)C4CCC5[C@]6(O)CC(O)[C@]7(O)C(CN8CC(C)CCC8[C@]7(C)O)[C@]6(O)C[C@@]53O[C@]24O)cc(OC)c1OC (some centres not stated),,inactive: -1.11%
CCCn1c(-c2ccc(F)cc2)nc2c(NCCCCN(CC)CC)nc(C)nc21,,inactive: -14.2%
COc1ccccc1N1CCN(C/C=C/c2ccc(N(C)C)cc2)CC1,,inactive: -0.246%
COc1ccc(-c2nc3cnc(N4CCOCC4)nc3n(Cc3cccc(OC)c3)c2=O)cc1,"inconclusive: 2.51 µM [fluorescent, full curve]",
O=c1c(-c2ccccc2)nc2cnc(N3CCOCC3)nc2n1-c1ccccc1,"inconclusive: 5.01 µM [fluorescent, side channel, full curve]",
Cc1ccc(C2=CC(c3ccc(N(C)C)cc3)n3nnnc3N2)cc1 (configuration not stated),"inconclusive: 25.1 µM [inhibitor, single point]",
O=c1cnnc(SCCc2ccccc2)[nH]1,"inconclusive: 25.1 µM [inhibitor, partial curve]",
Cc1cccc2cc3c(NC(=O)CC(C)C)nn(C)c3nc12,"inconclusive: 2.51 µM [inhibitor, full curve]",
Cc1cnc(CNc2nc(-c3ccccc3Cl)nc3ccccc23)cn1,,inactive: -3.68%
CC1CC2C(C(O)C[C@]3(C)C2CC[C@]3(O)C(=O)CO)[C@]2(C)C=CC(=O)C=C12 (some centres not stated),,inactive: 1.6%
NC(=O)c1c(NC(=O)CSc2nnc(Cc3ccccc3)n2Cc2ccco2)sc2c1CCC2,"inconclusive: 39.8 µM [inhibitor, single point]",
COc1ccc(C(=O)NCC(c2cccnc2)N2CCN(c3ccccc3OC)CC2)cc1OC (configuration not stated),,inactive: -0.378%
CC(=O)NC(CC(C)C)C(=O)NC(Cc1ccccc1)C(N)=O (configuration not stated),,inactive: -1.31%
CCCCn1c(=NC(C)=O)c(C#N)cc2c(=O)n3cccc(C)c3nc21,"inconclusive: 1.26 µM [fluorescent, side channel, full curve]",
CCCCn1nc(NC(=O)c2cccs2)c2cc3ccccc3nc21,"inconclusive: 25.1 µM [fluorescent, partial curve]",
Cc1nc2cnc(Nc3ccccc3)nc2n(Cc2cccs2)c1=O,"inconclusive: 31.6 µM [fluorescent, single point]",

Structure (SMILES),Potency,"activity change, negative = inhibition"
O=c1nc2s/c(=C\c3ccco3)c(=O)n2nc1Cc1ccccc1,"inconclusive: 31.6 µM [inhibitor, single point]",
O=c1c2c([nH]c3ccccc13)C(=C1CCCC1)CC2,"inconclusive: 31.6 µM [inhibitor, single point]",
CSc1nnc2n(-c3ccccc3)c(=O)c3c4c(sc3n12)CCC4,,inactive: -0.518%
CC(C)Cn1c(CCC(=O)O)ccc1-c1cccs1,"inconclusive: 25.1 µM [fluorescent, side channel, partial curve]",
COc1ccc(-n2c(=O)c(-c3ccccc3)nc3cnc(N4CCOCC4)nc32)cc1,"inconclusive: 3.98 µM [fluorescent, full curve]",
Cc1ccc(Cn2c(=N)c(C(=O)NCc3ccco3)cc3c(=O)n4ccccc4nc32)cc1,"inconclusive: 12.6 µM [fluorescent, partial curve]",
Nc1c(S(=O)(=O)c2ccccc2)c2nc3ccccc3nc2n1Cc1ccco1,"inconclusive: 25.1 µM [fluorescent, partial curve]",
O=c1[nH]c(=O)c2nc3ccccc3nc2[nH]1,"inconclusive: 15.8 µM [inhibitor, single point]",
c1cc2c3c(cccc3c1)NC1(CCCCCC1)N2,,inactive: -24.1%
COC(=O)c1cc2c(=O)n3ccccc3nc2n(Cc2cccnc2)c1=N,"inconclusive: 12.6 µM [fluorescent, side channel, partial curve]",
CC(=O)c1cccc(NC(=O)c2cc(C(C)C)on2)c1,,inactive: 0.0446%
c1ccc(Cc2ccc(OCCn3cncn3)cc2)cc1,,inactive: -0.596%
COc1cccc(Cn2c(=O)c(C)nc3cnc(Oc4ccccc4)nc32)c1,,inactive: -5.86%
O=c1c(O)c(-c2ccc3c(c2)OCO3)oc2ccccc12,"inconclusive: 15.8 µM [fluorescent, partial curve]",
CN1CCN(c2ncc3nc(-c4cn(C)c5ccccc45)c(=O)n(C[C@H]4CCCO4)c3n2)CC1,"inconclusive: 12.6 µM [inhibitor, partial curve]",
COc1ccc(-n2c(=O)c(-c3cccs3)nc3cnc(N4CCN(C)CC4)nc32)cc1,"inconclusive: 10 µM [fluorescent, side channel, partial curve]",
CN(C)C(=O)CSc1nnc(-c2cc(-c3cccs3)nc3ccccc23)o1,"inconclusive: 25.1 µM [fluorescent, partial curve]",
Cn1c(=O)c(-c2ccc(F)cc2)nc2cnc(N3CCOCC3)nc21,"inconclusive: 5.01 µM [fluorescent, full curve]",
CCn1c(=N)c(C(N)=O)cc2c(=O)n3cccc(C)c3nc21,"inconclusive: 2 µM [fluorescent, side channel, full curve]",
Cc1ccc2nc(N3CCN(C)CC3)c(C#N)cc2c1,,inactive: -15.7%
COc1ncc2nc(-c3ccc(F)cc3)c(=O)n(Cc3ccc(F)cc3)c2n1,"inconclusive: 31.6 µM [inhibitor, single point]",
